Data on 19 molecules can be found in the supplement of paper PMC10369915.

This is one part of the list. Cut-off read from the data, not from the text of the source: active = 3.2 or more and inactive = the rest. Only a few entries rise above the background.

Some targets named below: SHP2 C-SH2 domain E139D; SHP2 N-SH2 domain L43F; SHP2 N-SH2 domain T42A; SHP2 N-SH2 domain T52S.
Holding throughout (experiment): enrichment score (SH2-bound / input frequency) (ratio); bacterial display of known human phosphotyrosine sites (pTyr-Var adds point mutants) read by sequencing; higher = stronger binding; tyrosines were phosphorylated by kinases first
The target of experiment [1] is SHP2 C-SH2 domain wild-type.
For experiment [2], the target named is SHP2 N-SH2 domain wild-type.
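Note: displayed peptides selected on beads carrying the immobilized SH2 domain, with library peptides lacking any tyrosine serving as negative controls.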

On to VLCEVFKYNRRPAET [GLNA_HUMAN_104], for which the enrichment score is inactive: 2.18 with SHP2 C-SH2 domain E139D (peptide library: Human pTyr); inactive: 1.65 in experiment [1] (peptide library: Human pTyr); inactive: 2.08 in the experiment with SHP2 N-SH2 domain L43F (peptide library: Human pTyr); inactive: 1.84 with SHP2 N-SH2 domain T42A (peptide library: Human pTyr); inactive: 2.09 with SHP2 N-SH2 domain T52S (peptide library: Human pTyr); inactive: 2.02 in experiment [2] (peptide library: Human pTyr).
Regarding ERLVEIQYELTDRLA [GIT2_HUMAN_224], the enrichment score with SHP2 C-SH2 domain E139D (peptide library: Human pTyr) was inactive: 1.04; in experiment [1] (peptide library: Human pTyr), inactive: 0.649; in the experiment with SHP2 N-SH2 domain L43F (peptide library: Human pTyr), inactive: 0.843; with SHP2 N-SH2 domain T42A (peptide library: Human pTyr), inactive: 0.845; in the experiment with SHP2 N-SH2 domain T52S (peptide library: Human pTyr), inactive: 0.835; in experiment [2] (peptide library: Human pTyr), inactive: 0.781.
As to PVGVLYEVKVF [PTS_Y128_K129E_YF], the enrichment score with SHP2 C-SH2 domain E139D (peptide library: pTyr-Var) is inactive: 1.21; in experiment [1] (peptide library: pTyr-Var), inactive: 1.52; with SHP2 N-SH2 domain L43F (peptide library: pTyr-Var) it was inactive: 1.51; in the experiment with SHP2 N-SH2 domain T42A (peptide library: pTyr-Var) it was inactive: 1.34; with SHP2 N-SH2 domain T52S (peptide library: pTyr-Var), inactive: 1.16; in experiment [2] (peptide library: pTyr-Var), inactive: 1.55.
Regarding ATQDDYVLEVR [PTPRZ1_Y2179], the enrichment score was inactive: 0.643 with SHP2 C-SH2 domain E139D (peptide library: pTyr-Var); inactive: 0.624 in experiment [1] (peptide library: pTyr-Var); inactive: 0.533 with SHP2 N-SH2 domain L43F (peptide library: pTyr-Var); inactive: 0.48 with SHP2 N-SH2 domain T42A (peptide library: pTyr-Var); inactive: 0.669 with SHP2 N-SH2 domain T52S (peptide library: pTyr-Var); inactive: 0.701 in experiment [2] (peptide library: pTyr-Var).
For LPVHFYSHVEH [PYGM_Y204_G205S], the enrichment score was inactive: 1.65 in the experiment with SHP2 C-SH2 domain E139D (peptide library: pTyr-Var); inactive: 3.1 in experiment [1] (peptide library: pTyr-Var); inactive: 1.7 in the experiment with SHP2 N-SH2 domain L43F (peptide library: pTyr-Var); active: 3.52 in the experiment with SHP2 N-SH2 domain T42A (peptide library: pTyr-Var); inactive: 1.9 in the experiment with SHP2 N-SH2 domain T52S (peptide library: pTyr-Var); inactive: 1.85 in experiment [2] (peptide library: pTyr-Var).
Regarding ELEDDAIYSVHVPAG [GIT1_HUMAN_545], the enrichment score is inactive: 0.894 with SHP2 C-SH2 domain E139D (peptide library: Human pTyr); inactive: 0.677 in experiment [1] (peptide library: Human pTyr); inactive: 0.735 with SHP2 N-SH2 domain L43F (peptide library: Human pTyr); inactive: 0.728 with SHP2 N-SH2 domain T42A (peptide library: Human pTyr); inactive: 0.803 in the experiment with SHP2 N-SH2 domain T52S (peptide library: Human pTyr); inactive: 0.945 in experiment [2] (peptide library: Human pTyr).
On to DLDDQHDYDSVASDE [GIT1_HUMAN_383], for which the enrichment score is inactive: 1.14 in the experiment with SHP2 C-SH2 domain E139D (peptide library: Human pTyr); inactive: 1.24 in experiment [1] (peptide library: Human pTyr); inactive: 1.12 in the experiment with SHP2 N-SH2 domain L43F (peptide library: Human pTyr); inactive: 1.07 in the experiment with SHP2 N-SH2 domain T42A (peptide library: Human pTyr); inactive: 1.29 with SHP2 N-SH2 domain T52S (peptide library: Human pTyr); inactive: 1.28 in experiment [2] (peptide library: Human pTyr).
On to KFSHSGRYMMTRDYL [2ABD_HUMAN_305], for which the enrichment score was inactive: 2.82 in the experiment with SHP2 C-SH2 domain E139D (peptide library: Human pTyr); active: 3.5 in experiment [1] (peptide library: Human pTyr); inactive: 2.96 with SHP2 N-SH2 domain L43F (peptide library: Human pTyr); inactive: 3.01 with SHP2 N-SH2 domain T42A (peptide library: Human pTyr); active: 3.54 with SHP2 N-SH2 domain T52S (peptide library: Human pTyr); active: 4.06 in experiment [2] (peptide library: Human pTyr).
In the case of ERLVECQYELTDRLA [GIT1_HUMAN_224], the enrichment score in the experiment with SHP2 C-SH2 domain E139D (peptide library: Human pTyr) is inactive: 1.31; in experiment [1] (peptide library: Human pTyr), inactive: 1.22; in the experiment with SHP2 N-SH2 domain L43F (peptide library: Human pTyr), inactive: 1.47; in the experiment with SHP2 N-SH2 domain T42A (peptide library: Human pTyr), inactive: 1.6; with SHP2 N-SH2 domain T52S (peptide library: Human pTyr), inactive: 1.41; in experiment [2] (peptide library: Human pTyr) it was inactive: 1.61.
On to CFERASEYQLNDSAG [GNAT1_HUMAN_142], for which the enrichment score in the experiment with SHP2 C-SH2 domain E139D (peptide library: Human pTyr) is inactive: 1.35; in experiment [1] (peptide library: Human pTyr), inactive: 0.964; with SHP2 N-SH2 domain L43F (peptide library: Human pTyr), inactive: 1.13; with SHP2 N-SH2 domain T42A (peptide library: Human pTyr), inactive: 1.02; with SHP2 N-SH2 domain T52S (peptide library: Human pTyr), inactive: 1.31; in experiment [2] (peptide library: Human pTyr), inactive: 1.72.
Turning to TSRVLYPNDNF [PYGM_Y281_I276T], the enrichment score in the experiment with SHP2 C-SH2 domain E139D (peptide library: pTyr-Var) was inactive: 0.69; in experiment [1] (peptide library: pTyr-Var) it was inactive: 0.832; in the experiment with SHP2 N-SH2 domain L43F (peptide library: pTyr-Var) it was inactive: 0.905; with SHP2 N-SH2 domain T42A (peptide library: pTyr-Var) it was inactive: 0.748; with SHP2 N-SH2 domain T52S (peptide library: pTyr-Var), inactive: 0.746; in experiment [2] (peptide library: pTyr-Var), inactive: 0.982.
Consider NWGKKYPTCNS [PTPRZ1_Y53], for which the enrichment score with SHP2 C-SH2 domain E139D (peptide library: pTyr-Var) was inactive: 1.01; in experiment [1] (peptide library: pTyr-Var), inactive: 1.26; with SHP2 N-SH2 domain L43F (peptide library: pTyr-Var) it was inactive: 1.12; in the experiment with SHP2 N-SH2 domain T42A (peptide library: pTyr-Var), inactive: 0.85; with SHP2 N-SH2 domain T52S (peptide library: pTyr-Var), inactive: 0.825; in experiment [2] (peptide library: pTyr-Var), inactive: 1.13.
On to AARVWQLYIGDTRSR [GNMT_HUMAN_34], for which the enrichment score is inactive: 2 with SHP2 C-SH2 domain E139D (peptide library: Human pTyr); inactive: 1.99 in experiment [1] (peptide library: Human pTyr); inactive: 1.95 with SHP2 N-SH2 domain L43F (peptide library: Human pTyr); inactive: 2.05 with SHP2 N-SH2 domain T42A (peptide library: Human pTyr); inactive: 2.14 with SHP2 N-SH2 domain T52S (peptide library: Human pTyr); inactive: 2.63 in experiment [2] (peptide library: Human pTyr).
Turning to VHVPAGLYRIRKGVS [GIT1_HUMAN_554], the enrichment score is inactive: 0.694 with SHP2 C-SH2 domain E139D (peptide library: Human pTyr); inactive: 0.765 in experiment [1] (peptide library: Human pTyr); inactive: 0.723 with SHP2 N-SH2 domain L43F (peptide library: Human pTyr); inactive: 0.737 with SHP2 N-SH2 domain T42A (peptide library: Human pTyr); inactive: 0.802 with SHP2 N-SH2 domain T52S (peptide library: Human pTyr); inactive: 1.03 in experiment [2] (peptide library: Human pTyr).
CLPEHNPYRPSYSYD [AKAP8_HUMAN_146]: the enrichment score in the experiment with SHP2 C-SH2 domain E139D (peptide library: Human pTyr) is inactive: 1.22; in experiment [1] (peptide library: Human pTyr), inactive: 1.3; with SHP2 N-SH2 domain L43F (peptide library: Human pTyr), inactive: 1.09; in the experiment with SHP2 N-SH2 domain T42A (peptide library: Human pTyr) it was inactive: 1.09; with SHP2 N-SH2 domain T52S (peptide library: Human pTyr) it was inactive: 1.25; in experiment [2] (peptide library: Human pTyr), inactive: 1.31.
On to FLPVNPEYSATRNQG [GIT1_HUMAN_321], for which the enrichment score was inactive: 0.607 with SHP2 C-SH2 domain E139D (peptide library: Human pTyr); inactive: 0.611 in experiment [1] (peptide library: Human pTyr); inactive: 0.526 with SHP2 N-SH2 domain L43F (peptide library: Human pTyr); inactive: 0.64 with SHP2 N-SH2 domain T42A (peptide library: Human pTyr); inactive: 0.81 in the experiment with SHP2 N-SH2 domain T52S (peptide library: Human pTyr); inactive: 0.554 in experiment [2] (peptide library: Human pTyr).
Consider NHIGHTGYLNTVTVS [GNB2L1_HUMAN_194], for which the enrichment score is inactive: 0.722 in the experiment with SHP2 C-SH2 domain E139D (peptide library: Human pTyr); inactive: 0.592 in experiment [1] (peptide library: Human pTyr); inactive: 0.613 in the experiment with SHP2 N-SH2 domain L43F (peptide library: Human pTyr); inactive: 0.685 with SHP2 N-SH2 domain T42A (peptide library: Human pTyr); inactive: 0.543 with SHP2 N-SH2 domain T52S (peptide library: Human pTyr); inactive: 0.762 in experiment [2] (peptide library: Human pTyr).
Take KDCGSQKYAAFNGCS [GJA1_HUMAN_265_YA]: the enrichment score is inactive: 0.919 with SHP2 C-SH2 domain E139D (peptide library: Human pTyr); inactive: 0.875 in experiment [1] (peptide library: Human pTyr); inactive: 0.815 in the experiment with SHP2 N-SH2 domain L43F (peptide library: Human pTyr); inactive: 0.773 with SHP2 N-SH2 domain T42A (peptide library: Human pTyr); inactive: 0.703 with SHP2 N-SH2 domain T52S (peptide library: Human pTyr); inactive: 0.896 in experiment [2] (peptide library: Human pTyr).
Turning to ENRKYYKDLKE [PURA_Y156_M157K], the enrichment score with SHP2 C-SH2 domain E139D (peptide library: pTyr-Var) is inactive: 0.717; in experiment [1] (peptide library: pTyr-Var), inactive: 0.913; with SHP2 N-SH2 domain L43F (peptide library: pTyr-Var), inactive: 0.894; with SHP2 N-SH2 domain T42A (peptide library: pTyr-Var), inactive: 0.944; with SHP2 N-SH2 domain T52S (peptide library: pTyr-Var), inactive: 0.844; in experiment [2] (peptide library: pTyr-Var), inactive: 0.787.
